# About 2,200 (0.71%) of roughly 310,000 compounds showed an effect of 50% or more. Effects have a minus sign here. The list shows a part of the results.
# Molecular target: human ether-à-go-go-related gene (hERG) potassium channel (human, UniProt Q12809)
# Test: primary screen, population patch clamp on CHO cells stably expressing hERG
# Chain of human ether-à-go-go-related gene (hERG) potassium channel (Q12809 whole entry, looked up): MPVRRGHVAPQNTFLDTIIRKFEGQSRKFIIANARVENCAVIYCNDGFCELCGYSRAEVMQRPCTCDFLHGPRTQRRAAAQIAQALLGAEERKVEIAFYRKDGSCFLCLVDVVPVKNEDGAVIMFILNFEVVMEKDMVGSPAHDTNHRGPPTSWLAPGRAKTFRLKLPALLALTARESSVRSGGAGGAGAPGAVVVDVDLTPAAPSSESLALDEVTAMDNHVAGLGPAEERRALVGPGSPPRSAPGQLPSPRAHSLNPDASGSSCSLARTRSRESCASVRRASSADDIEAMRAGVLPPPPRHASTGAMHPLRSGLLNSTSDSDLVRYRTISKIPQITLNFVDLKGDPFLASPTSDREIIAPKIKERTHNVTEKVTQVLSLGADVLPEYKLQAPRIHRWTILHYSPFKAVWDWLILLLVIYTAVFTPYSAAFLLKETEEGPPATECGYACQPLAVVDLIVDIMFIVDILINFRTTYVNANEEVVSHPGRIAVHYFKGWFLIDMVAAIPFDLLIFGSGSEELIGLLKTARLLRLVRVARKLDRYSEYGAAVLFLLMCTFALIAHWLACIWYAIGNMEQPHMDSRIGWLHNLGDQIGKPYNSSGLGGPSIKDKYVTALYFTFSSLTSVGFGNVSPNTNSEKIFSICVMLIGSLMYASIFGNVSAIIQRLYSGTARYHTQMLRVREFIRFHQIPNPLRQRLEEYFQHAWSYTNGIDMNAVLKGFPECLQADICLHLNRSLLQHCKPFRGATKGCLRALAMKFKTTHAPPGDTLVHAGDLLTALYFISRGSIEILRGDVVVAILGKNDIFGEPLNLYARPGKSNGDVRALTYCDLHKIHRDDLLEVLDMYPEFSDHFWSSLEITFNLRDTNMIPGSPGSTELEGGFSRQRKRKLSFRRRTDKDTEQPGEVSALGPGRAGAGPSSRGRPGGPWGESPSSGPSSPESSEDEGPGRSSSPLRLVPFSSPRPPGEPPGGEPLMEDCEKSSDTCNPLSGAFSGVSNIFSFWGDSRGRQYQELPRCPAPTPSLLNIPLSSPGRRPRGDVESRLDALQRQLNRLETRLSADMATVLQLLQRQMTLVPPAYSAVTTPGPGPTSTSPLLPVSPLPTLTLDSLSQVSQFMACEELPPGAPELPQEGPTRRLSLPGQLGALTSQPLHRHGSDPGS
row,SMILES,"hERG current change (%, negative = inhibition) at 1uM [%]"
1,COc1ccc(CCNC(=O)CSc2ccc(-c3ccco3)nn2)cc1OC,10.4
2,O=C(Nc1ccc2c(c1)OCO2)C1CCCCN1S(=O)(=O)c1ccc(F)cc1 (stereo not shown),-0.837
3,O=C(CCS(=O)(=O)c1ccccc1)Nc1nc(-c2ccc(F)cc2)cs1,-1.01
4,CS(=O)(=O)c1ccc(Cl)c(NC(=O)COC(=O)c2cccc(S(=O)(=O)N3CCCC3)c2)c1,0.346
5,O=c1c2cc(N3CCOCC3)ccc2[nH]c(=S)n1Cc1ccccc1Cl,9.46
6,Cc1ccc(OCCCn2c(CO)nc3ccccc32)cc1,0.848
7,CCOc1ccc2[nH]c(=O)c(CN(CCCO)S(=O)(=O)c3ccc(F)cc3)cc2c1,2.55
8,CCOC(=O)C(NC(=O)c1ccccc1OCC)(Nc1ncccn1)C(F)(F)F (stereo not shown),0.28
9,CSc1nc(C)cc(SCC(=O)Nc2ccc(Cl)cc2Cl)n1,9.54
10,O=C(NCc1ccccc1)c1ccc(Br)cc1Br,11.3
11,CC(C)(C)c1cc(-c2ccccc2)n[nH]1,7.95
12,COc1ccc(C(=O)NC(=S)NNC(=O)c2ccccc2C)cc1,11.2
13,CCOc1ccccc1NC(=O)Nc1ccc(Br)cc1C,9.87
14,Cn1cccc1-c1cc(C(=O)N/N=C/c2ccccc2Cl)[nH]n1,10.7
15,O=C1C2C3C=CC(C3)C2C(=O)N1Cc1cccnc1 (stereo not shown),6.1
16,O=C(Nc1ccc([N+](=O)[O-])cc1)C(=O)Nc1cccc(C(=O)O)c1,1.54
17,O=C1CSC(c2ccc3c(c2)OCO3)N1c1ccc(Oc2ccccc2)cc1 (stereo not shown),0.177
18,Oc1ccc(-c2nnc(SCc3ccccc3)o2)cc1,6.29
19,CCN(CCNC(=O)Nc1ccc(Cl)cc1)c1ccccc1,9.78
20,Cc1ccc(CNC(=O)[C@@H]2CCC(=O)N2Cc2ccco2)cc1,17.4
21,COc1ccc(-c2nc(CS(=O)CC(=O)NCc3ccc(Cl)cc3)c(C)o2)cc1 (stereo not shown),3.9
22,O=C(c1cc(F)c(F)cc1Cl)N1CCN(c2ncccn2)CC1,14.4
23,COc1cc(C(=O)N2C(=O)c3cccc(N)c3C2=O)cc(OC)c1OC,8.97

row,SMILES,"hERG current change (%, negative = inhibition) at 1uM [%]"
1,Cn1cccc1CNC(=S)Nc1ccccc1Cl,11.2
2,NS(=O)(=O)c1cccc(NC(=O)CCC(=O)c2cccs2)c1,14.1
3,COc1ccccc1CNC(=O)C(=O)NCCC1CCCCN1S(=O)(=O)c1cccs1 (stereo not shown),17.3
4,COc1ccc(/C=C2/SC(=S)N(CCC(=O)N3CCN(C)CC3)C2=O)cc1,13.5
5,CCOC(=O)/C=C1\NC(C)(C)Cc2cc(OC)c(O)cc21,-6.93
6,CCOC(=O)N1CCC(NC(=S)Nc2ccc3nc(N4CCN(C)CC4)cc(C)c3c2)CC1,10.1
7,NC(=S)Nc1ccc(F)cc1F,8.3
8,CCCc1c(C)nc(N2CCN(c3ccccc3OC)CC2)[nH]c1=O,15.5
9,C=CC[n+]1c(-c2ccc(OC)c(OC)c2)csc1NNC(=O)Nc1ccccc1.[Br-],9.69
10,O=C(O)CSc1nnc(Cn2cnc3ccccc32)n1CCc1ccccc1,20.5
11,COc1ccccc1NC(=O)NC1CCCCCCC1,22.5
12,Cc1ccc(-n2ncc3c(=O)[nH]c(SCC(=O)N4CCCCC4)nc32)cc1,2.74
13,C=CCNC(=O)CCCCC(=O)NCC=C,7.66
14,CCOC(=O)C1(Cc2cccc(OC)c2)CCN(CCO)CC1,2.3
15,Cc1ccc(CNc2nc3ccc(C)cc3n3cnnc23)cc1,6.78
16,CC(C)CN(C(=O)C1CCCO1)C1CCS(=O)(=O)C1 (stereo not shown),6.58
17,CN(Cc1ccc(Br)s1)C(=O)CNC(=O)c1ccc2c(c1)OCO2,5.14
18,Nn1c(SCC(=O)N2CCOCC2)nnc1C1CC1,24.7
19,Cc1cc(C)nc(NC(N)=NC(C)c2ccccc2)n1 (stereo not shown),11.2
20,c1cnn(-c2cc(N3CCOCC3)ncn2)c1,19.2
21,O=C(COC(=O)c1nc(Cl)ccc1Cl)c1ccccc1Cl,-0.146
22,CC(C)Oc1ccc(Cn2c(=O)sc3ccccc32)cc1,6.56
23,O=C(CO/N=C/c1ccc(OC(F)F)cc1)N1CCc2ccccc21,4.49

# Reference: article PMC4336329 (PLoS ONE, 2015)
